{"source": "PubChem BioAssay AID1476", "about": "(National Center for Advancing Translational Sciences (NCATS), 2009)", "note": "Screen size: about 200,000 compounds; about 4,500 (2.2%) were called active. The shares of active, inactive and inconclusive entries below differ from those in the screen. Calls follow the shape of the dose curve; as a rule, active = well fitted inhibition curve with a large enough effect; inconclusive = small, poorly fitted or top-dose-only effect, or effect the other way; inactive = flat fitted curve, though single readings scatter. Where the call is inconclusive, the potency comes from a doubtful curve fit. Potency is read from the fitted curve at half-maximal effect; tags tell the direction and shape of the fitted curve."}
{"target": "Cruzipain (Trypanosoma cruzi) (UniProt P25779)", "sequence (P25779 whole entry, looked up)": "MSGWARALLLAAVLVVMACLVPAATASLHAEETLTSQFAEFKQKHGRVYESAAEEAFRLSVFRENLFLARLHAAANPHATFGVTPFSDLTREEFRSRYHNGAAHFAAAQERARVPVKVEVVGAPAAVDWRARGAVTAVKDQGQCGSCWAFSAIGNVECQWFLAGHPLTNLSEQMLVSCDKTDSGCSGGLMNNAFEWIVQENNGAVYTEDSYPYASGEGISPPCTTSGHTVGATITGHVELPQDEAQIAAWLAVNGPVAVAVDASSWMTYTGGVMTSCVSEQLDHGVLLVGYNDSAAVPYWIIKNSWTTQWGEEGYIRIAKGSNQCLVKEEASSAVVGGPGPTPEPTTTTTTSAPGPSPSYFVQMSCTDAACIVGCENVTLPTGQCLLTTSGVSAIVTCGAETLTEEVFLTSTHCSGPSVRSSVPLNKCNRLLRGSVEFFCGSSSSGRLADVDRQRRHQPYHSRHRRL", "assay": "qHTS Assay for Promiscuous and Specific Inhibitors of Cruzain (without detergent); also: nearly all actives have a fitted effect of over 40% in size;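 as to max response, negative = inhibition: plate controls were enzyme without inhibitor for no effect and buffer without enzyme for full effect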", "conditions": "purified cruzain, Z-FR-AMC fluorescence, no detergent", "method_in_brief": "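Detergent-free condition (0.00005% Triton X-100) in acetate buffer pH 5.5 with DTT. 1.5 nM enzyme and compound were pre-mixed 15 min, then 2 uM Z-FR-AMC substrate added; reaction progress from fluorescence change between first and third reads (60 s).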"}
{"smiles": "COCCCNCCOc1ccc(C(C)(C)c2ccccc2)cc1", "max response, negative = inhibition": "inactive: 13.2%"}
{"smiles": "COCCCNC(=O)c1ccc(Cn2c(=O)c3ccccc3n(Cc3ccc(Cl)cc3)c2=O)cc1", "Potency": "inconclusive: 39.8 µM [activator, single point]"}
{"smiles": "COC(=O)CCCC[C@@H]1SC[C@@H]2NC(=O)N[C@@H]21", "max response, negative = inhibition": "inactive: 4.03%"}
{"smiles": "CCCCCSc1nnc2c(n1)OC(c1cccn1C)N(C(C)=O)c1ccccc1-2", "note": "(configuration not stated)", "max response, negative = inhibition": "inactive: -2.33%"}
{"smiles": "COc1ccc(-c2nc3sc(CCNC(=O)C(=O)Nc4ccccc4C#N)c(C)n3n2)cc1", "max response, negative = inhibition": "inactive: 3.34%"}
{"smiles": "Cc1cc(NC(c2ccc(Cl)cc2)c2ccc3cccnc3c2O)no1", "note": "(configuration not stated)", "Potency": "inconclusive: 39.8 µM [inhibitor, single point]"}
{"smiles": "COc1cccc(OC)c1C(=O)OCC(=O)Nc1ccc(OC(F)(F)F)cc1", "Potency": "inconclusive: 31.6 µM [activator, single point]"}
{"smiles": "COc1ccc(/C=C/C(=O)Nc2ccc(-n3nncc3-c3ccccc3)cc2)cc1OC", "Potency": "active: 15.8 µM"}
{"smiles": "CCC1C/C(=C/c2cccs2)C(=O)/C(=C/c2cccs2)C1", "note": "(configuration not stated)", "Potency": "inconclusive: 25.1 µM [inhibitor, partial curve, poor fit]"}
{"smiles": "COc1cccc(-n2c(=O)c3c(C)c(C)sc3n(Cc3ccccc3C#N)c2=O)c1", "max response, negative = inhibition": "inactive: -2.66%"}
{"smiles": "Cc1cccc(C)c1NC(=O)COC(=O)c1ccc(N2CCCC2)c([N+](=O)[O-])c1", "Potency": "active: 10 µM"}
{"smiles": "CC(=O)N1CCc2cc(CNS(=O)(=O)c3ccc(C(C)(C)C)cc3)ccc21", "max response, negative = inhibition": "inactive: 22.6%"}
{"smiles": "COc1ccc(-c2cc(C(=O)N3CCCc4ccccc43)no2)cc1OC", "Potency": "inconclusive: 39.8 µM [activator, single point]"}
{"smiles": "COc1ccc(-c2nnc(SCC(=O)c3ccc[nH]3)n2-c2ccccc2)cc1", "Potency": "inconclusive: 31.6 µM [inhibitor, single point]"}
{"smiles": "Cc1cccc(S(=O)(=O)c2c(N)n(/N=C/c3ccco3)c3nc4ccccc4nc23)c1", "max response, negative = inhibition": "inactive: -21.6%"}
{"smiles": "CCN(CC)C(=O)c1sc2c(c1C)c(=O)n(-c1ccc(C)c(C)c1)c(=O)n2Cc1cccc(Cl)c1", "Potency": "inconclusive: 20 µM [activator, partial curve]"}
{"smiles": "COc1ccc(N(C(C)C(=O)N/N=C/c2ccc(OCC(C)C)cc2)S(C)(=O)=O)cc1", "note": "(configuration not stated)", "Potency": "inconclusive: 25.1 µM [activator, single point]"}
{"smiles": "CCCCCCc1cc2cc(S(=O)(=O)c3ccc(F)c(Cl)c3)c(=O)oc2cc1O", "Potency": "active: 20 µM"}
{"smiles": "Cc1nn(C)cc1C1C2=C(CC(C)(C)CC2=O)N(c2ccccc2)C2=C1C(=O)CC(C)(C)C2", "Potency": "inconclusive: 39.8 µM [activator, single point]"}
{"smiles": "COc1cccc(NC(=O)c2ccc(Cn3cc([N+](=O)[O-])cn3)o2)c1", "max response, negative = inhibition": "inactive: 3.2%"}
{"smiles": "N#C/C(=C\\c1ccc(OC(=O)c2cccs2)cc1)c1nc2ccccc2[nH]1", "Potency": "inconclusive: 39.8 µM [inhibitor, single point]"}
{"smiles": "CS(=O)(=O)N1CCC2(CC1)CN(c1cccc(-c3ccccc3)c1)C2", "Potency": "inconclusive: 25.1 µM [activator, single point]"}
{"smiles": "COc1cccc(-c2cc(C(F)(F)F)n3nc(C)c(-c4ccccc4)c3n2)c1", "max response, negative = inhibition": "inactive: 11.9%"}
{"smiles": "COc1cccc(C(C(=O)NC2CCCCC2)N(CC2CCCO2)C(=O)CNC(=O)c2ccco2)c1", "note": "(configuration not stated)", "Potency": "inconclusive: 31.6 µM [activator, single point]"}
{"smiles": "COc1ccc2c(c1)O[C@H](c1ccc3c(c1)OCO3)[C@@H](OC(=O)NCCOc1ccccc1)C2=O", "max response, negative = inhibition": "inactive: -6.78%"}
{"smiles": "Cc1ccc2oc(-c3cccc(NC(=O)C4CCCO4)c3)nc2c1", "note": "(configuration not stated)", "Potency": "inconclusive: 25.1 µM [activator, single point]"}
{"smiles": "CCOC(=O)c1c(C)[nH]c(C(=O)CSc2nnc(Nc3ccccc3F)s2)c1C", "Potency": "active: 12.6 µM"}
{"smiles": "Cc1onc(-c2ccccc2)c1C(=O)NC(=S)Nc1sc2c(c1C#N)CCC(C)C2", "note": "(configuration not stated)", "Potency": "active: 7.94 µM"}
{"smiles": "CCOC(=O)CSc1nc2ccc(N3CCOCC3)cc2c(=O)n1Cc1ccccc1", "Potency": "inconclusive: 39.8 µM [activator, single point]"}
{"smiles": "CN(C)c1nc(N2CCOCC2)nc(N(c2ccccc2)c2ccccc2)n1", "Potency": "inconclusive: 39.8 µM [activator, single point]"}
{"smiles": "CC(C)(O)[C@H](O)COc1c2occc2cc2ccc(=O)oc12", "max response, negative = inhibition": "inactive: 0.237%"}
{"smiles": "N#CCCn1c(=O)c(CCc2ccccc2)nc2cnc(Nc3ccccc3)nc21", "Potency": "inconclusive: 3.16 µM [inhibitor, full curve, poor fit]"}
{"smiles": "Cc1cccc(/C=N/N2CCN(c3ccccc3)CC2)c1", "Potency": "inconclusive: 39.8 µM [inhibitor, single point]"}
{"smiles": "COC(=O)c1c(NC(=O)CSc2ncnc3c2cnn3-c2ccccc2Cl)sc2c1CCCC2", "Potency": "active: 3.16 µM"}
{"smiles": "Cc1cc(Oc2ccc(C(C)(C)C)cc2)nc(N2CCOCC2)n1", "Potency": "inconclusive: 25.1 µM [activator, single point]"}
{"smiles": "COc1ccc(Cn2ccc3nc(C)c(C(=O)N4CCN(c5ccccc5F)CC4)cc3c2=O)cc1", "Potency": "inconclusive: 31.6 µM [activator, single point]"}
{"smiles": "CC(OC(=O)c1oc2ccccc2c1CSC1CCCCC1)C(=O)NC(N)=O", "note": "(configuration not stated)", "Potency": "inconclusive: 39.8 µM [inhibitor, single point]"}
{"smiles": "COc1cc(OC)cc(-c2nnc(SCC(=O)N3CCCc4ccccc43)o2)c1", "Potency": "inconclusive: 39.8 µM [activator, single point]"}
{"smiles": "O=c1c2ccccc2ncn1-c1ccc(Cl)c(Cl)c1", "Potency": "inconclusive: 39.8 µM [inhibitor, single point]"}
{"smiles": "CC(=O)OCCNc1cc(SCc2ccco2)c2nonc2c1[N+](=O)[O-]", "Potency": "inconclusive: 39.8 µM [inhibitor, single point]"}
{"smiles": "S=c1[nH]nc(CSc2nc3ccccc3s2)n1C1CCCCC1", "Potency": "inconclusive: 39.8 µM [inhibitor, single point]"}
{"smiles": "COC(=O)c1cc2sc(C)cc2n1CC(=O)Nc1cccc(SC)c1", "max response, negative = inhibition": "inactive: -3.62%"}
{"smiles": "Cc1cccc(OCC(=O)Nc2ccc3oc(-c4ccccc4F)nc3c2)c1", "max response, negative = inhibition": "inactive: 1.2%"}
{"smiles": "COc1ccc(NC(=O)c2cc(S(=O)(=O)NCCC3=CCCCC3)ccc2F)cc1", "max response, negative = inhibition": "inactive: 7.87%"}
{"smiles": "COc1ccc(-c2nc3cc(C(C)C)ccc3o2)cc1NC(=O)c1ccc(C)c(Cl)c1", "max response, negative = inhibition": "inactive: -6.62%"}
{"smiles": "O=[N+]([O-])c1nn(-c2ccc3c(c2)OCCO3)n(O)c1=Nc1ccc(Cl)cc1", "Potency": "inconclusive: 31.6 µM [inhibitor, single point]"}
{"smiles": "CCOC(=O)c1sc(NC(=O)CCCn2nc([N+](=O)[O-])cc2C)c(C(=O)OCC)c1C", "Potency": "inconclusive: 39.8 µM [activator, single point]"}
{"smiles": "FC(F)(F)c1ccc2c(c1)ncn2C1CCN(Cc2nnnn2C2CCCCC2)CC1", "Potency": "inconclusive: 20 µM [activator, partial curve]"}
{"smiles": "COc1ccc(Cl)cc1-c1nc(-c2ccc(NC(=O)c3cccs3)cc2)no1", "Potency": "inconclusive: 20 µM [inhibitor, single point]"}
{"smiles": "Cc1cnn(C(=S)NCCc2ccccc2)c1", "Potency": "active: 12.6 µM"}
{"smiles": "Oc1c(C(Nc2nc3ccccc3s2)c2ccco2)ccc2cccnc12", "note": "(configuration not stated)", "Potency": "active: 7.94 µM"}
{"smiles": "O=C(Nc1ccccc1-c1nc2ccccc2[nH]1)c1ccc(S(=O)(=O)N2CCCCC2)cc1", "Potency": "active: 10 µM"}
{"smiles": "O=C(Cn1nnc(-c2ccc(Cl)cc2)n1)NCCC1=CCCCC1", "Potency": "active: 20 µM"}
{"smiles": "O=C1c2cccc3cccc(c23)C(=O)N1c1ccc2ncccc2c1", "Potency": "inconclusive: 39.8 µM [inhibitor, single point]"}
{"smiles": "CCCC(=O)C1=C(c2cccc(OC)c2)N(C(=O)CCC)n2c(C)nnc2S1", "Potency": "inconclusive: 39.8 µM [activator, single point]"}
{"smiles": "CCC(=O)Nc1ccc(C(=O)NNC(=O)C(c2ccccc2)c2ccccc2)cc1", "Potency": "inconclusive: 31.6 µM [inhibitor, single point]"}
{"smiles": "COc1ccccc1CN1C(=O)[C@@H]2C(CCC(N)=O)NC3(C(=O)Nc4c3ccc(Cl)c4C)[C@@H]2C1=O", "note": "(some centres not stated)", "Potency": "inconclusive: 31.6 µM [activator, single point]"}
{"smiles": "Cc1cccc(OCC(O)CN2CC3(C)CC2CC(C)(C)C3)c1", "note": "(configuration not stated)", "max response, negative = inhibition": "inactive: -6.01%"}
{"smiles": "Cc1ccc(C2CC(C(F)(F)F)n3nc(C(=O)NCc4c(C)nn(C)c4C)c(Cl)c3N2)cc1", "note": "(configuration not stated)", "Potency": "inconclusive: 31.6 µM [activator, partial curve]"}
{"smiles": "Cc1cn(C2OC(COC(=O)c3ccccc3)C(OC(=O)c3ccccc3)C2OC(=O)c2ccccc2)c(=O)[nH]c1=O", "note": "(configuration not stated)", "Potency": "inconclusive: 39.8 µM [inhibitor, single point]"}
{"smiles": "Cc1ccc(CSc2ncc(Cl)c(C(=O)Oc3ccc(F)cc3)n2)cc1", "max response, negative = inhibition": "inactive: -4.22%"}
{"smiles": "COc1cccc(CNC(=O)CSC2=Nc3ccccc3C3=NC(C)C(=O)N23)c1OC", "note": "(configuration not stated)", "max response, negative = inhibition": "inactive: -9.02%"}
{"smiles": "O=c1cc(-c2ccccc2)[nH]n1-c1ccc([N+](=O)[O-])cc1", "Potency": "inconclusive: 39.8 µM [inhibitor, single point]"}
{"smiles": "C=CCC(CC=C)(NC(=O)c1ccccc1C)c1ccccc1", "Potency": "inconclusive: 31.6 µM [inhibitor, single point]"}
{"smiles": "CCCOc1ccc(C(=O)NC(C)C(=O)O)cc1", "note": "(configuration not stated)", "Potency": "inconclusive: 39.8 µM [inhibitor, single point]"}
{"smiles": "O=C(c1ccncc1)N1CCC2(CC1)CN(Cc1cc(C(F)(F)F)cc(C(F)(F)F)c1)C2", "max response, negative = inhibition": "inactive: 6.11%"}
{"smiles": "O=C(NCCc1ccc(Cl)cc1)c1ccc2c(c1)N(Cc1c(F)cccc1Cl)C(=O)CS2", "Potency": "inconclusive: 31.6 µM [inhibitor, single point]"}
